Measured values from the domain aggregation screens of Martell et al. (2025).

assay: soluble fraction after stress (log2 fold change); higher = more stays soluble; pooled small domains, quantitative proteomics; conditions: stress: pH 4
In short: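 Values are on a log2 scale, where higher means more of the domain stayed soluble after pH 4 stress. They are fold changes in the soluble amount of each domain from pooled custom libraries, measured by high-throughput quantitative proteomics. The fold change is taken to reflect aggregation propensity.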

First: HMADYYSVLGVERDATEEEIKRAYRKMSRKYHPDLAGPQFEEKFKEVNTAYEVLSDPEKRRMFDMGVDPN
Second: HMDQVDDEELLDLVELEVRELLSAYEFPGDDIPIIKGSALAALEGGDEATGKNAILELMKAVDDYVPQPE
The “soluble fraction (log2)” value of the first is higher: 0.177 for the first, -1.54 for the second.

Compared with “HMGIYRHFKGGLYEVVGTAKHSETEEELIVYRALYGDYGLWARPAAMFTETVEIDGEPLPRFSLI”, “HMKAAYITIHDKIKDDIDLGIWKIGQRLPSERDLADEFGVSRMTLRQAITLLVEEGVLTRKVGSGTYVAS” is higher in “soluble fraction (log2)” value: -0.917 for the first, no less than 0.43 for the second.

Going from “HMKYKDYYAVLGVPRDADLDQIKKAYRKLARQFHPDVSKEPNAEAQFKEAGEAYATLKDAEKRAAYDQLG” to “HMNDDYYAILGVSRDADQSEIKKAYRKKARETHPDYGGDEEAFKAVSVAYETLSDPEKRRMYDIGGPDAAR”, the “soluble fraction (log2)” value rises from 0.203 to no less than 0.43.

First: HMPLHDIGKVGIPDHILLKPGKLTPAEWEVMKTHARLGAAAIEQAEREATRPVEFLVLAKEIAHHHHER
Second: HMPREEGIVKWFNRTKGFGFIIRENGDEIFVHHRSVSAHGGQRANLSDGQRVTFTVVERSKGWQAEDVDP
The “soluble fraction (log2)” value of the first is higher: 0.152 for the first, -1.62 for the second.

First: HMQSHRFQRLQNDLANRIAQTPPSERLPSEPQLAQELGVSRATLREAMRAFEAQGLIRRKQGAGTFVVG
Second: HMQVDDAELIDLVEMEIRELLTSYEFPGDTIPIVKGSALAALEGRDDEIGKNSILELMKAVDESIPQPT
The “soluble fraction (log2)” value of the first is higher: no less than 0.43 for the first, -0.895 for the second.

Compared with “HMSDYYSVLGVSRDATGEEIKRAYRKLARELHPDVNPDPATNEKFKEVTAAYEVLSDPSKRQMYDLGGDPR”, “HMVDYYEVLGVRVDASDSEVKRAYRRLIVENHPDKLIAQGLPQEFIDLANEKMGAINSAYDMIKKERRI” is lower in “soluble fraction (log2)” value: -0.0146 for the first, -1.16 for the second.
